The campaign covered roughly 94,000 compounds. About 6,200 (6.6%) were called active. Inconclusive results, whose numbers are uncertain, are shown with a selection of clear calls. Calls follow the shape of the dose curve; as a rule, active = well fitted inhibition curve with a large enough effect; inconclusive = small, poorly fitted or top-dose-only effect; inactive = flat fitted curve, though single readings scatter. Where the call is inconclusive, the potency comes from a doubtful curve fit.
Test: Cytotoxic Profiling in HEK 293 Cell Line of Diverse Libraries Using Quantitative High-Throughput Screening; also: nearly all actives have a fitted effect of over 60% in size
Settings: HEK 293 viability, ATP luminescence (CellTiter-Glo), 48-72 h; activity change, negative = cytotoxicity: at 115 µM (top of the series) unless noted; series mostly up to 115 µM
How it was run: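 Read-out: CellTiter-Glo ATP luminescence. Cells: HEK 293, 250 cells/well. Exposure: 48 or 72 hr, 37 degree Celsius.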
% is scaled to controls: 0 for no effect and ±100 for the full control effect; potency is read from the fitted curve at half-maximal effect; tags tell the direction and shape of the fitted curve.

Compound	activity change, negative = cytotoxicity	Potency	outcome
Cn1ccnc1C(O)c1cc2n(n1)CCN(c1ncnc3nc[nH]c13)C2 (stereo unspecified)	inactive: 0.572%	–	–
O=c1ccc(-c2cc(-c3cccc(N4CCOCC4)c3)cn3cncc23)c[nH]1	inactive: -16.1% [at 172 µM]	–	–
O=C1NC(=NC2CCCCC2)C2(CCCN(Cc3ccccc3)C2)N1c1cccnc1 (stereo unspecified)	–	inconclusive: 89.1 µM [inhibitor, single point]	–
CC(=O)NC[C@H]1O[C@H](Cc2cc(-c3ccc(F)cc3)on2)CC[C@@H]1O	inactive: -17.3% [at 172 µM]	–	–
Cn1nccc1C(=O)N1CCNc2cnc(Nc3ccccc3)nc2C1	–	inconclusive: 100 µM [inhibitor, partial curve, poor fit]	–
O=C(CCn1cnc(-c2ccccc2)c1-c1cc2ccccc2[nH]1)N1CCCC1	–	inconclusive: 56.2 µM [inhibitor, partial curve, poor fit]	–
COc1ccc(CCNc2ncnc3c2CN(C2CCCC2)C(=O)CN3C)cc1	–	inconclusive: 79.4 µM [inhibitor, partial curve, poor fit]	–
COc1cccc(C(=O)N2CC(Oc3ccccc3-c3nc(-c4cnccn4)no3)C2)c1	–	inconclusive: 35.5 µM [inhibitor, full curve, poor fit]	–
Cc1ccccc1NC(=O)CN1C(=O)C(c2ccccc2)=NC12CCCCC2	–	inconclusive: 79.4 µM [inhibitor, partial curve, poor fit]	–
O=C(Nc1ccccc1)NC1CCN(Cc2ccc(-c3ccsc3)cc2)C1 (stereo unspecified)	–	inconclusive: 44.7 µM [inhibitor, partial curve, poor fit]	–
CC1(COc2cccnc2)COc2ccc(C(=O)N3CCOCC3)cc2N1 (stereo unspecified)	–	inconclusive: 63.1 µM [inhibitor, full curve]	–
CO[C@H]1C(=O)N(C2CCN(C(=O)c3nn(C)c4ccccc34)CC2)[C@H]1c1ccncc1	inactive: -9.38%	–	–
O=C(NCC1CCCO1)c1cnc2c(c1)N(Cc1ccccc1)CCC2 (stereo unspecified)	–	inconclusive: 112 µM [inhibitor, partial curve, poor fit]	–
Cn1ncc2c(N3CCN(S(N)(=O)=O)CC3)nc(-c3cccnc3)nc21	–	inconclusive: 35.5 µM [inhibitor, full curve, poor fit]	–
Cc1cc(C)cc(C(=O)NC2CCN(c3cnn(C)c(=O)c3)CC2)c1	–	inconclusive: 17.8 µM [inhibitor, partial curve, poor fit]	–
O=C(NCc1ccccc1F)C1CCCCN1Cc1ccc(-c2ccsc2)cc1 (stereo unspecified)	–	inconclusive: 50.1 µM [inhibitor, partial curve, poor fit]	–
COc1ccc(N2CCN(C(=O)c3ccc4c(c3)N(C)C3CCCCCN3C4=O)CC2)cc1 (stereo unspecified)	–	inconclusive: 31.6 µM [inhibitor, partial curve, poor fit]	–
O=C(CN1C(=O)CCC1=O)N1CCC(CCOc2ccccc2F)C1 (stereo unspecified)	–	active: 44.7 µM	–
O=C(c1ccccc1OCC1CCCN(Cc2cccc(O)c2)C1)N1CCCC1 (stereo unspecified)	inactive: 6.28%	–	–
CC(NC(=O)C1CCN(c2nccc(Nc3ccccc3Cl)n2)CC1)c1ccc(F)cc1 (stereo unspecified)	–	active: 39.8 µM	–
O=C(CCC1CCN(S(=O)(=O)c2cccc(F)c2)CC1)NCCCN1CCCC1=O	inactive: 0.737%	–	–

Compound	activity change, negative = cytotoxicity	Potency	outcome
Cc1ccc(NC(=O)C2CCN(C(=O)c3ncn4c3COC(c3ccc(F)cc3)C4)CC2)c(F)c1 (stereo unspecified)	inactive: -1.23%	–	–
CCOc1ccc(CC(=O)NC2CCN(c3cc(-c4ccc(F)cc4)[nH]n3)CC2)cc1OCC	–	inconclusive: 35.5 µM [inhibitor, partial curve, poor fit]	–
FC(F)(F)c1ccc(N2C3CCC2CN(Cc2cccs2)C3)cc1	–	inconclusive: 56.2 µM [inhibitor, partial curve, poor fit]	–
O=C(Nc1cccc(C(F)(F)F)c1)c1nc2c(o1)CCN(Cc1cccs1)CC2	–	inconclusive: 100 µM [inhibitor, partial curve, poor fit]	–
COc1ccc(CCC(=O)N2CCCN(c3cc(-c4ccc(Br)cc4)[nH]n3)CC2)cc1	–	inconclusive: 50.1 µM [inhibitor, partial curve, poor fit]	–
COc1ccc(CN2CC3(CCN(C(=O)Cn4c(=O)oc5ccccc54)CC3)C2=O)cc1	–	inconclusive: 50.1 µM [inhibitor, partial curve, poor fit]	–
O=C(Cn1ccn2nc(-c3ccc(F)cc3)c(CO)c2c1=O)Nc1ccc(C(F)(F)F)cc1	–	inconclusive: 89.1 µM [inhibitor, single point]	–
CCCNC(=O)NCC1Cn2cccc2CN1Cc1ccccc1 (stereo unspecified)	–	inconclusive: 100 µM [inhibitor, single point]	–
CN1CCCC1c1nc(C2CN(C(=O)CCCc3c[nH]c4ccccc34)C2)no1 (stereo unspecified)	–	inconclusive: 50.1 µM [inhibitor, partial curve, poor fit]	–
O=C(c1cccs1)N1CCC(N2C(=O)C3(CCCCC3)C2c2ccncc2)CC1 (stereo unspecified)	inactive: -13.2%	–	–
O=C(Nc1ccccc1)N1CCC(C(=O)N2CCC(N3CCCC3=O)CC2)CC1	inactive: 3.02%	–	–
CC(C)Cn1c(=O)c(C(=O)N2CCN(C(=O)c3cccc(Cl)c3)CC2)nc2cccnc21	inactive: -2.35%	–	–
O=C(CN1CCN(c2cc(C3CC(O)C3)ncn2)CC1)N1CCCC1 (stereo unspecified)	inactive: 0.238%	–	–
Cn1ncc2c(C(=O)N3CCCC3)cc(-c3ccccc3)nc21	–	inconclusive: 31.6 µM [inhibitor, full curve, poor fit]	–
Cc1cccc(S(=O)(=O)N2C[C@H](c3nc(-c4cccnc4)no3)[C@@H](C)C2)c1	–	inconclusive: 56.2 µM [inhibitor, partial curve, poor fit]	–
COCCCn1c(=O)c(C(=O)NCCc2ccccc2)nc2cccnc21	inactive: -0.44%	–	–
O=C(c1cccc(Cl)c1)N1CCCC(C(=O)N2CCC(N3Cc4cccn4C3=O)CC2)C1 (stereo unspecified)	inactive: -25.6%	–	–
CC(C)C(=O)N1CCC(CCOc2ccc(F)cc2)C1 (stereo unspecified)	–	inconclusive: 50.1 µM [inhibitor, partial curve, poor fit]	–
CC(C)C1=NOC2(CCCN([S+](=O)([O-])c3cccs3)C2)C1 (stereo unspecified)	–	–	inactive
COc1ccc(CNC(=O)C2CCN(C(=O)c3ccc(-c4ccccc4OC)cc3)CC2)cc1	–	inconclusive: 56.2 µM [inhibitor, partial curve, poor fit]	–

— PubChem BioAssay AID1345083 (National Center for Advancing Translational Sciences (NCATS), 2018)
